# Of roughly 21,000 targets only a part is listed; those with the largest changes were picked by preference.
# Compound: CC1Cc2ccccc2N1C(=O)C1CCCN(C1)C(=O)CCl (mixture of isomers) [TRIM25 ligand 11 (diastereomer mixture)]
# Assay: probe-labelled cysteine peptide fold change vs DMSO (competition) (log2 fold change); higher = less target engagement (more negative = stronger competition)
# Conditions: 10 µM; THP-1; incubation time: 4 h
# 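Note: competitive chemoproteomic profiling in live THP-1 cells with an iodoacetamide desthiobiotin (IA-DTB) probe, comparing probe-labelled peptide intensities in compound-treated cells against DMSO-treated controls.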
# Sequence of UniProt Q8N1F8 (Q8N1F8 whole entry, looked up): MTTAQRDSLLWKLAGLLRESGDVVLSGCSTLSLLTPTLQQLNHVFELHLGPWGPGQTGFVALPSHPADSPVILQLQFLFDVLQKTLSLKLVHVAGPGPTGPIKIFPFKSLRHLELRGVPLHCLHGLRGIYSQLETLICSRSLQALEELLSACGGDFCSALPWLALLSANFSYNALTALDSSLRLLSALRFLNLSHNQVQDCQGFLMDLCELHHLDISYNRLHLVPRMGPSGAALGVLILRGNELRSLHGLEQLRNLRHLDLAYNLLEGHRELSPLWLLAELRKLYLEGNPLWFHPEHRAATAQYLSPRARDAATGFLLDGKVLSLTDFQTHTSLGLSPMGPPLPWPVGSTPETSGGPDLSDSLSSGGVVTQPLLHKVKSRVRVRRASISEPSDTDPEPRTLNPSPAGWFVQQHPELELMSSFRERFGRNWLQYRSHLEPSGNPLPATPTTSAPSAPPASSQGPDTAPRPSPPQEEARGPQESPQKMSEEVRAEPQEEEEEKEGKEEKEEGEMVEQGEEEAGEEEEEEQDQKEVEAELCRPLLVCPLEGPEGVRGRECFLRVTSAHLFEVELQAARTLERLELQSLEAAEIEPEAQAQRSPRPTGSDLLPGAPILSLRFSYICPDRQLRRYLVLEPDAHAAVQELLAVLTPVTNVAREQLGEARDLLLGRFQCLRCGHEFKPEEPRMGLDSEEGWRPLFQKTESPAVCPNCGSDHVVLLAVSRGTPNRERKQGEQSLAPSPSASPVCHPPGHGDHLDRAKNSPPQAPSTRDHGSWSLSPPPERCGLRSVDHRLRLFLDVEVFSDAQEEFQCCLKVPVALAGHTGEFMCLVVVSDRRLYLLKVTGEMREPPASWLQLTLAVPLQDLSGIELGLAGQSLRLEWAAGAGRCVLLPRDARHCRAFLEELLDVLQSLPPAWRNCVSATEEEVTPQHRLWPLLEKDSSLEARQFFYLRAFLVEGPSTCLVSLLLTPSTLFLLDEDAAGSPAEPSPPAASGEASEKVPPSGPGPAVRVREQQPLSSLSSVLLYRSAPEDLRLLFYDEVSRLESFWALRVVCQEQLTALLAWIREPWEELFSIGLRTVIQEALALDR
target,measurement,value
STK11IP_Q8N1F8_918_NCVSATEEEVTPQHR (UniProt Q8N1F8),probe-labelled cysteine peptide fold change,0.213

# From the supplement of paper PMC12067093, “Discovery and optimisation of a covalent ligand for TRIM25 and its application to targeted protein ubiquitination” (Chemical Science, 2025)
